Target: ES004-B5
Assay: SPR

Binder	Kd [nM]	koff [s⁻¹]
6 × His tagged huSIRPα V2 ECD recombinant protein (domain or fragment) not shown	2.73	0.00366
6 × His tagged huSIRPα V8 ECD recombinant protein (domain or fragment) not shown	0.82	0.00258

Reference: PMC11384143 (2024)
